PubChem BioAssay AID504706 (National Center for Advancing Translational Sciences (NCATS), 2011)
The whole screen tested about 320,000 compounds, of which about 200 (0.062%) were called active. Inconclusive means that the source gave no clear call. Such entries were picked first, then a sample of the others. The call rests on the fitted dose curve; in most records, active means well fitted activation curve with a large enough effect; inconclusive means small, poorly fitted or top-dose-only effect; inactive means no such curve, though single readings can be large or run the other way. No potency is given beside an inconclusive call; the fits are too rough.
Potency means the concentration at half of the fitted maximal effect; tags describe the fitted curve by direction and shape.

Experiment: qHTS assay for re-activators of p53 using a Luc reporter; further: nearly all actives have a fitted effect of over 45% in size; on activity change, positive = activation: % of control where 0% means no effect
Details: H1299 p53-A138V BP100-luciferase reporter, luminescence, 24 h; series mostly up to 92.2 µM; activity change, positive = activation: at the top concentration
Summary of the method: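 p53-null H1299 cells stably carrying temperature-sensitive p53-A138V and a BP100-luciferase reporter were pinned with compounds (4-point, 1:5 series) and held 24 hrs at 37 deg C. Luminescence was read 10 min after detection reagent.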
With `COc1cccc(Nc2ncnc3sccc23)c1` the Potency was inconclusive [activator, full curve, poor fit].
In the case of `O=C1C2C3C=CC(CC3)C2C(=O)N1/N=C/c1c[nH]c2ccccc12` (stereo not drawn), the Potency is reported as inconclusive [activator, partial curve, poor fit].
With `CC(C)OCCCNc1ncnc2c1cnn2-c1ccccc1` the Potency was inconclusive [activator, partial curve].
With `Cc1ccccc1Nc1nc(N)nc(COC(=O)c2cccn2C)n1` the Potency was inconclusive [activator, full curve, poor fit].
For `COc1cccc2cc(C(=O)NCc3ccco3)c(=O)oc12`, the Potency was inconclusive [activator, partial curve, poor fit].
In the case of `CCOc1cc(/C=N/Nc2ncc(C)c(=O)[nH]2)ccc1O`, the “activity change, positive = activation” value is reported as inactive: 8.42%.
In the case of `COc1ccc(NS(=O)(=O)c2cc(-c3cnc(C4CC4)o3)ccc2C)cc1`, the “activity change, positive = activation” value is reported as inactive: -0.128%.
For `Cc1ccccc1N(C)C(=O)C1CCCN(c2ncnc3c2nc2n3CCCCC2)C1` (stereo not drawn), the “activity change, positive = activation” value was inactive: -1.73%.
In the case of `O=C(c1cc2ccccc2o1)c1nc2c(n1O)CCCCC2`, the Potency is reported as inconclusive [activator, partial curve, poor fit].
With `O=C(Nc1ccc(Br)cn1)c1ccc(Br)s1` the Potency was inconclusive [activator, full curve, poor fit].
With `Cc1cc2nc3c(nc2cc1C)CCCC3` the Potency was inconclusive [activator, partial curve, poor fit].
In the case of `CC(SC1=NCCS1)C(=O)Nc1nnc(-c2ccc(F)cc2)s1` (stereo not drawn), the Potency is reported as inconclusive [activator, partial curve, poor fit].
For `Cc1cc(CN2CCC(n3nccc3NC(=O)c3ccccc3Cl)CC2)cc(C)c1O`, the “activity change, positive = activation” value was inactive: 2.34%.
With `O=C(O)CCCn1c(O)c(C=C2N=c3ccccc3=N2)sc1=S` the Potency was inconclusive [activator, single point].
For `O/N=C(/CCc1ccccc1)c1ccc2c(c1)OCCO2`, the Potency was inconclusive [activator, partial curve, poor fit].
In the case of `O=c1/c(=C/c2ccc([N+](=O)[O-])cc2)sc2n1CCCN=2`, the “activity change, positive = activation” value is reported as inactive: -39.7%.
For `O=C(NC1CCCCC1)c1cc2nc3c(c(C(F)(F)F)n2n1)CCCC3`, the Potency was inconclusive [activator, partial curve, poor fit].
For `O=C(Nc1ccc2c(c1)OCCO2)c1coc2ccccc2c1=O`, the Potency was inconclusive [activator, partial curve, poor fit].
In the case of `N#Cc1nc(-c2ccc(F)cc2)oc1NCc1cccc2c1OCO2`, the “activity change, positive = activation” value is reported as inactive: 8.05%.
In the case of `O=C(Nc1sc2c(c1-c1nc3ccccc3[nH]1)CCCC2)C1CCCC1`, the Potency is reported as inconclusive [activator, partial curve, poor fit].
For `COc1cccc(/C=N/NC(=O)c2cccc(N3CCCC3=O)c2)c1`, the Potency was inconclusive [activator, full curve, poor fit].
With `Cc1ccc(/C=C2/SC(=S)N(c3ccc(S(=O)(=O)Nc4nccs4)cc3)C2=O)cc1` the “activity change, positive = activation” value was inactive: 8.53%.
In the case of `O=C(/C=C/c1ccccc1)c1ccc2c3c(cccc13)CC2`, the Potency is reported as inconclusive [activator, partial curve, poor fit].
With `CCOC(=O)N1CCC(=NNc2ncc(C(F)(F)F)cc2Cl)CC1` the “activity change, positive = activation” value was inactive: -0.767%.
With `COc1ccc(/C=C/C(=O)Nc2ccccc2C(=O)N2CCCC2)cc1` the “activity change, positive = activation” value was inactive: 27.9%.
With `N/C(=N\OC(=O)c1cc(Cl)ccc1Cl)c1cccnc1` the Potency was inconclusive [activator, partial curve, poor fit].
In the case of `CCc1nccn1-c1cc(C(C)(C)C)nc2c(-c3ccc(Cl)cc3)cnn12`, the Potency is reported as inconclusive [activator, single point].
With `CN(C)C(=O)Cn1c(SCC(=O)NCc2ccc3c(c2)OCO3)nc2ccccc21` the “activity change, positive = activation” value was inactive: -6.16%.
With `O=[N+]([O-])c1nn(-c2ccc3c(c2)OCCO3)n(O)c1=NC1CCCCCC1` the Potency was inconclusive [activator, full curve, poor fit].
With `Cn1ccs/c1=N\C(=O)Nc1cccc(C(F)(F)F)c1` the Potency was inconclusive [activator, partial curve, poor fit].
With `Brc1ccc(-c2csc(N3CCCCCC3)n2)cc1` the Potency was inconclusive [activator, full curve, poor fit].
For `CCC(C)NC(=O)c1cc(Sc2nnc(C)s2)nc2ccccc12` (stereo not drawn), the Potency was inconclusive [activator, single point].
For `CCN(CC)C(=O)[C@H]1CC(CC(=O)NCC23CC4CC(CC(C4)C2)C3)C(=O)N2CCc3c([nH]c4ccccc34)[C@]12C` (stereo partly drawn), the “activity change, positive = activation” value was inactive: -3.1%.
With `O=C1NC(=S)N(C(=O)c2ccc(F)cc2)/C1=C/c1ccccc1` the Potency was inconclusive [activator, partial curve].
For `CCN(CC)c1cccc(OC2=NS(=O)(=O)c3ccccc32)c1`, the Potency was inconclusive [activator, single point].
In the case of `O=C(O)C1C2CCC(O2)C1C(=O)Nc1ccc(Cl)cc1F` (stereo not drawn), the Potency is reported as inconclusive [activator, full curve, poor fit].
With `CCN(Cc1ccccc1)C(=O)C1CCN(Cc2sccc2C)CC1` the “activity change, positive = activation” value was inactive: -6.12%.
In the case of `N#Cc1cc2c(nc1SCc1ccncc1)CCC2`, the Potency is reported as inconclusive [activator, single point].
With `O=C(NCCC1=CCCCC1)c1cnccn1` the Potency was inconclusive [activator, partial curve, poor fit].
In the case of `Fc1ccc2nc(Nc3nc4c(F)cccc4s3)sc2c1`, the Potency is reported as inconclusive [activator, full curve, poor fit].
With `Clc1ccc(-c2csc(N3CCSCC3)n2)cc1` the Potency was inconclusive [activator, partial curve, poor fit].
With `CC1(OC(=O)C2CCCC2)C(=O)C=C2C=C(c3ccsc3)N(C(CO)CO)C=C2C1=O` (stereo not drawn) the “activity change, positive = activation” value was inactive: 6.72%.
In the case of `COc1cccc(/C=C(/CC(=O)Nc2ccc(N3CCOCC3)cc2)c2nc3ccccc3s2)c1`, the Potency is reported as inconclusive [activator, full curve, poor fit].
